Measured values published in PubChem BioAssay AID686978 (National Center for Advancing Translational Sciences (NCATS), 2013).
Screen size: about 420,000 compounds; about 64,000 (15%) were called active. Inconclusive means that the source gave no clear call. Such entries were picked first, then a sample of the others. Calls follow the shape of the dose curve; as a rule, active = well fitted inhibition curve with a large enough effect; inconclusive = small, poorly fitted or top-dose-only effect; inactive = flat fitted curve, though single readings scatter. No potency is given beside an inconclusive call; the fits are too rough. Some compounds were tested as several samples or in several runs, with calls that do not always agree.

Assay: qHTS for Inhibitors of human tyrosyl-DNA phosphodiesterase 1 (TDP1): qHTS in cells in absence of CPT; also: nearly all actives have a fitted effect of over 55% in size
Details: DT40 Tdp1-/- hTDP1 cells, no CPT, ATP luminescence, 48 h; activity change, negative = growth inhibition: at 46.2 µM (top of the series) unless noted
Procedure, shortened: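 Growth kinetics read by CellTiter-Glo luminescence after ≥48 hr at 37 °C. Cells: DT40 Tdp1-/- stably carrying human TDP1, 400 per well, compound exposure in the absence of CPT (DMSO vehicle).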
% is scaled to controls: 0 for no effect and ±100 for the full control effect; potency is read from the fitted curve at half-maximal effect; tags tell the direction and shape of the fitted curve.

| SMILES | Potency | activity change, negative = growth inhibition |
| --- | --- | --- |
| COCCCNc1nc(N)c([N+](=O)[O-])c(NC2CCCCC2)n1 | inconclusive [inhibitor, single point] |  |
| CC1(C)OC2CC3C4CCC5=CC(=O)CCC5(C)C4(F)C(O)CC3(C)[C@]2(C(=O)CCl)O1 (stereo not given in full) |  | inactive: -19.2% |
| Cc1nc(-c2cccc(S(=O)(=O)N3CCOCC3)c2)cs1 | inconclusive [inhibitor, single point] |  |
| COc1ccc(S(=O)(=O)n2nc(C)c(S(=O)(=O)N3CCCCC3)c2C)cc1 |  | inactive: 22.2% |
| CC(C)COc1ccc(C(=O)Nc2ccc(NC(=O)c3ccco3)c(Cl)c2)cc1 |  | inactive: -24.7% |
| C/C(O)=C(/C=Nc1ccccc1)C(=O)Nc1ccccc1 |  | inactive: -11.6% |
| C[C@@H](CN=[N+]=[N-])CN1CC[C@H](C(C)(C)C)CCC1=O | active: 12.6 µM |  |
| CC1CCN(C(=O)c2ccc3c(c2)N(Cc2ccccc2F)C(=O)c2ccccc2S3(=O)=O)CC1 | inconclusive [inhibitor, single point] |  |
| Cc1sc2nc(COC(=O)c3ccc(N4CCCC4)c([N+](=O)[O-])c3)[nH]c(=O)c2c1C | inconclusive [inhibitor, single point] |  |
| NC(=O)c1cc(S(=O)(=O)Nc2ccc(OC(F)(F)F)cc2)cs1 | inconclusive [inhibitor, partial curve] |  |
| COc1ccc(-c2ccnc(-c3ccc(OCCCF)cc3)n2)cc1 | inconclusive [inhibitor, single point] |  |
| COc1ccc(S(=O)(=O)N2CCC(c3nc4ccccc4[nH]3)CC2)cc1 | active: 10.3 µM |  |
| C=C(C)Cn1c(SCC(=O)Nc2ccccc2C)nc2sc3c(c2c1=O)CCCC3 | inconclusive [inhibitor, full curve, poor fit] |  |
| COc1ccccc1N1CCN(C(=O)c2cc3c(=O)n(C)c4ccccc4c3s2)CC1 | active: 25.9 µM |  |
| COc1ccc(-c2nc(SCC(=O)NC3CCCC3)c(-c3ccc(OC)cc3)[nH]2)cc1 | active: 16.4 µM |  |
| CC12CCC(=O)N1C(C(=O)Nc1nc(-c3ccccc3Cl)cs1)CS2 (stereo not given) | inconclusive [inhibitor, single point] |  |
| O=C(Nc1cc2c(cc1Cl)-c1ccc([N+](=O)[O-])cc1C2=NO)C(F)(F)F | active: 23.1 µM |  |
| Cn1cc(/C=N\O)nc2c(=O)n(-c3ccccc3)c(=O)nc1-2 |  | inactive: -18.7% |
| Cc1ccc(NC(=O)c2cc(-c3ccco3)on2)cc1 | inconclusive [inhibitor, partial curve, poor fit] |  |
| COc1cc(C(=O)NC23CC4CC(CC(C4)C2)C3)cc(OC)c1OC | inconclusive [inhibitor, single point] |  |
| CO/N=C/c1ccc(Oc2ccc(C)cc2)c([N+](=O)[O-])c1 | active: 20.6 µM |  |
| COc1cc2nc(CCc3ccccc3)oc(=O)c2cc1OC |  | inactive: 2.22% |
| COc1ccc(N/C(C)=C2/C(=O)C(=O)N(CCO)C2c2ccc(Br)cc2)cc1 (stereo not given) | inconclusive [inhibitor, single point] |  |
| COC(=O)c1ccc(-n2c(C)cc(/C=N/n3cnnc3)c2C)cc1 | inconclusive [inhibitor, single point] |  |

| SMILES | Potency | activity change, negative = growth inhibition |
| --- | --- | --- |
| COc1ccccc1NC(=O)Nc1nnc(Cc2ccc(F)cc2)s1 | inconclusive [inhibitor, single point] |  |
| COc1ccc(/C=N/NC(=O)c2ccc(Cl)cc2Cl)cc1COC(C)=O | inconclusive [inhibitor, single point] |  |
| Cc1ccc(C(C)(C)C)c(OCCOCCN2CCCC2)c1 | inconclusive [inhibitor, single point] |  |
| Cc1noc(C)c1COc1ccc(CC(=O)NCc2ccccc2)cc1 | active: 0.517 µM |  |
| CN(C)C(=S)N=c1ssc(=S)n1Cc1ccco1 | active: 1.64 µM |  |
| Cc1nn(-c2ccccc2)c(N)c1Sc1cccc([N+](=O)[O-])c1 | inconclusive [inhibitor, single point] |  |
| CC(=O)c1ccc(N2CCN(c3ncnc4c3c(-c3ccccc3)cn4-c3ccc(C)c(Cl)c3)CC2)cc1 |  | inactive: 8.59% |
| CCN1C(=O)[C@H]2[C@@H](c3ccc(C)cc3)N[C@]3(CCCN(Cc4cccn4C)C3=O)[C@H]2C1=O | inconclusive [inhibitor, full curve] |  |
| COc1ccc(/C=C/c2nnc(NC(=O)CSc3ccc(Cl)cc3)s2)cc1 | active: 16.4 µM |  |
| COc1cccc2cc(C(=O)NC3CC4CCC3C4)oc12 (stereo not given) | inconclusive [inhibitor, partial curve, poor fit] |  |
| O=C(CSc1nc(-c2cccs2)nc2cc(=O)[nH]n12)Nc1ccccc1 |  | inactive: 0.0705% |
| c1ccc(N2CCN(c3ccc4nncn4n3)CC2)nc1 |  | inactive: -4.48% |
| COc1ccccc1CNC(=O)CN1C(=O)CCc2cc(S(=O)(=O)N3CCCCC3)ccc21 | inconclusive [inhibitor, single point] |  |
| COc1ccc(C(=O)NCCn2cc(SCc3cccc(F)c3)c3ccccc32)cc1OC | active: 4.61 µM |  |
| N#Cc1cccc(C(c2nnnn2C2CCCC2)N2CCCCCC2)c1 (stereo not given) | inconclusive [inhibitor, single point] |  |
| O=C1CC(N2CCC(c3nc4ccccc4o3)CC2)C(=O)N1c1ccc(Cl)c(C(F)(F)F)c1 (stereo not given) | inconclusive [inhibitor, single point] |  |
| CCCCc1c(C)c2ccc(OCC(C)=O)cc2oc1=O | inconclusive [inhibitor, full curve, poor fit] |  |
| O=C(NC12CC3CC(CC(C3)C1)C2)c1cc([N+](=O)[O-])ccc1Cl | inconclusive [inhibitor, single point] |  |
| CCOC(=O)C1CCN(c2nc3c(S(=O)(=O)c4ccc(Br)cc4)nnn3c3ccsc23)CC1 | inconclusive [inhibitor, single point] |  |
| COc1cc(/C=C2\C(=N)N3N=C(C)SC3=NC2=O)cc(OC)c1OCCOc1ccccc1C | inconclusive [inhibitor, single point] |  |
| CC1(C)Cc2ccccc2C2CC(O)C(=O)N21 (stereo not given) | inconclusive [inhibitor, single point] |  |
| CC(=O)c1cccc(NC(=O)c2cc(=O)c3ccccc3o2)c1 | inconclusive [inhibitor, single point] |  |
| O=C(CSC1=NCCN1)Nc1cccc(C(F)(F)F)c1 | inconclusive [inhibitor, single point] |  |
| CCOC(=O)Cc1c(C)nc2c(-c3ccccc3OC)c(C)nn2c1C | inconclusive [inhibitor, single point] |  |

| SMILES | Potency | activity change, negative = growth inhibition |
| --- | --- | --- |
| Cc1c(C(=O)C(=O)N2CCN(C)CC2)c2ccccc2n1C |  | inactive: 9.2% |
| N#Cc1cc2c(=O)n3ccccc3nc2n(CCCn2ccnc2)c1=N | inconclusive [inhibitor, partial curve] |  |
| COc1c(F)c(F)c(-c2csc(N)n2)c(F)c1F |  | inactive: -28.9% |
| O=[N+]([O-])c1ccc2[nH]c(O)c(N=NC(=S)NCC3CCCO3)c2c1 (stereo not given) | active: 14.6 µM |  |
| CCOc1ccc(NC(=O)CN2CCC(n3cnc4cc(F)ccc43)CC2)cc1 | inconclusive [inhibitor, single point] |  |
| Cn1c(=O)n(C)c2cc(NS(=O)(=O)c3ccc(F)cc3)c(NCc3ccccc3)cc21 | active: 14.6 µM |  |
| COc1ncccc1-c1cc2nc(NCCNC(C)=O)n(C)c(=O)c2s1 | inconclusive [inhibitor, single point] |  |
| O=C(Nc1ccc2c(c1)C(=O)N(C1CCCCC1)C2=O)C1CCCO1 (stereo not given) | inconclusive [inhibitor, single point] |  |
| COCc1[nH]nc2c1C(c1ccsc1)C(C#N)=C(N)O2 (stereo not given) |  | inactive: -24.1% |
| CC(C)(C)NC(=O)C(=O)NNC(=O)c1ccc(C(C)(C)C)cc1 | inconclusive [inhibitor, single point] |  |
| CCOC(=O)c1c(C)n(-c2ccccc2)c2ccc(O)cc12 | inconclusive [inhibitor, single point] |  |
| COc1ccc(CNC(=O)c2cc3c(-c4ccc(Cl)cc4)nn(C)c3s2)cc1 | inconclusive [inhibitor, single point] |  |
| Cc1c(C)c2ccc(OCC(=O)N3CC[C@@]4(O)CCCC[C@H]4C3)c(C)c2oc1=O | inconclusive [inhibitor, single point] |  |
| CCCN(CC(=O)Nc1ccccc1C)C(=O)COC(=O)c1cnc(C)cn1 |  | inactive: -12.5% |
| CCOC(=O)c1c(NC(=O)CSc2nnc3ccccn23)sc2c1CCC2 | inconclusive [inhibitor, partial curve, poor fit] |  |
| Cn1c(NCc2ccccc2)nc2cc(-c3ccccc3)sc2c1=O | inconclusive [inhibitor, partial curve] |  |
| FC(F)(F)c1ccccc1-n1c(-c2cnccn2)n[nH]c1=S |  | inactive: -18.5% |
| Cc1ccc(N2CC(C(=O)NCCS(=O)(=O)N3CCN(c4ccccc4)CC3)CC2=O)cc1 (stereo not given) | inactive |  |
| CCN1CCCC1CNC(=O)c1cc2c(OC)cccc2[nH]1 (stereo not given) |  | inactive: -17.1% |
| CCOC(=O)CSC1=C(C#N)C(=O)NC(c2ccc(OC)c(OC)c2)S1 (stereo not given) | active: 11.6 µM |  |
| O=C1CCC[C@@H]2[C@H](Cc3ccccc3)[C@@H](O)C[C@@H]3CCN1[C@@H]32 | inconclusive [inhibitor, partial curve, poor fit] |  |
| O=S(=O)(c1ccccc1)N1CCC2(CC1)CN(Cc1ccccc1)C2 | inconclusive [inhibitor, single point] |  |
